Laboratory results from PubChem BioAssay AID493208 (National Center for Advancing Translational Sciences (NCATS), 2011).
The whole screen tested about 44,000 compounds, of which about 340 (0.77%) were called active. Not shown: some 5% with an inconclusive outcome. The call rests on the fitted dose curve; in most records, active means well fitted inhibition curve with a large enough effect; inconclusive means small, poorly fitted or top-dose-only effect; inactive means flat fitted curve, though single readings scatter. The list shows a part of the results.

Test: Acumen qHTS Assay for Inhibitors of the mTORC1 Signaling Pathway in MEF (Tsc2-/-, p53-/-) Cells: Sytravon;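 further: plate controls were DMSO for no effect and rapamycin for full effect; nearly all actives have a fitted effect of over 50% in size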
Settings: phospho-rpS6 immunofluorescence/PI, 24 h; series mostly up to 38.3 µM; activity change, negative = inhibition: at the top concentration
Outline: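 Readout is phospho-S6 Alexa 488 signal normalized to PI per well, reported as % active cells with thresholds set from rapamycin (7.5 nM) and DMSO controls. Cells: Tsc2-/-, p53-/- MEFs, 24 hrs compound at 37 C; PI cell number serves as viability.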

Activity change, negative = inhibition, inactive:
Cc1cc2ccccc2n1-c1ccc(C(=O)N2CCCCC2)s1 5.91%
COc1cccc(CNC(=O)CCNS(=O)(=O)c2cccc3nsnc23)c1 -15%
CCn1cc(S(=O)(=O)c2ccccc2)c(=O)c2cc(C)ccc21 0.671%
CCOC(=O)c1[nH]c2ccccc2c1NC(=O)c1ccc(OC(C)C)cc1 -17.7%
COc1cc(OC)cc(C(=O)Nc2ccc(S(=O)(=O)Nc3cc(C)nc(C)n3)cc2)c1 -3.41%
COc1ccc(CCN2CC(C(=O)NCCc3ccc(C)cc3)CC2=O)cc1OC (stereo unspecified) -0.0514%
CCCCn1c(COc2cccc(OC)c2)nc2ccccc21 -27.5%
COc1cc(NC(=O)c2cc3c(=O)oc4ccc(C)cc4c3s2)cc(OC)c1OC -0.0312%
CC(C)(CC(=O)OCC(=O)Nc1ccc(F)c(Cl)c1)CC1=NS(=O)(=O)c2ccccc2N1 -2.49%
CCCc1cc(=O)n2[nH]c(NCc3ccc(CC)cc3)nc2n1 4.16%
O=C1c2[nH]nc(-c3ccccc3)c2C(c2ccccc2)N1c1cccc(C(F)(F)F)c1 (stereo unspecified) -7.87%
O=C1SC(Nc2ccc(Cl)cc2)C(=O)N1Cc1ccccc1 (stereo unspecified) 14.1%
Cc1c(Cl)cccc1Nc1nc(N)nc(CSc2nc3ccccc3s2)n1 7.07%
Cc1ccc(NC(=O)CCCn2c3ccccc3c(=O)c3cc(C)ccc32)c(Br)c1 9.22%
CC1CCN(S(=O)(=O)c2ccc3c(c2)N(CC(=O)NCCc2ccc(Cl)cc2)C(=O)CO3)CC1 7.06%
CCOC(=O)c1c(C)[nH]c(C)c1S(=O)(=O)N1CCC(C(=O)N2CCN(c3cc(C)ccc3C)CC2)CC1 -10.7%
Cc1ccc2oc(C(=O)Nc3ccc(S(=O)(=O)Nc4onc(C)c4C)cc3)cc(=O)c2c1 6.61%
O=C1CS(=O)(=O)C2(C(=O)N(Cc3ccc(F)cc3)c3ccccc32)N1c1cccc(C(F)(F)F)c1 (stereo unspecified) 0.88%
O=C(CSc1ncc(S(=O)(=O)c2ccc(Cl)cc2)c(=O)[nH]1)Nc1ccc2c(c1)OCCO2 -4.3%
CCCCNC(=O)C1=CC(c2ccc3c(c2)OCO3)=NS(=O)(=O)N1C 0.406%
CCOc1ccc(N(C)C(=O)C2CCN(S(=O)(=O)c3ccc4c(c3)CCCN4C(C)=O)CC2)cc1 -4.4%
CCC(Sc1nc2ccncc2[nH]1)C(=O)Nc1ccc(F)cc1 (stereo unspecified) 2.76%
O=S(=O)(c1ccccc1)c1nnn2c1nc(Nc1ccccc1)c1cc(Cl)ccc12 -0.789%
Cc1ccc(Cl)cc1N1CCN(C(=O)Cn2ncc3c([nH]c4ccccc43)c2=O)CC1 3.85%
COc1cccc(-n2c(=O)c3sc4ccccc4c3n(CC(=O)Nc3ccccc3OC)c2=O)c1 -7.59%
Cc1ccc(-n2nc(CO)c(C(=O)NCCc3ccccc3)n2)cc1 -0.223%
O=C(CSc1nnc(-c2ccc(Cl)cc2)o1)N1CCc2ccccc21 -11.5%
Cc1ccc(Cn2cnc3c(oc4ccccc43)c2=O)cc1 3.55%
Cc1cc(C)cc(NC(=O)C(NS(=O)(=O)c2cccc3nsnc23)c2ccccc2)c1 (stereo unspecified) 4.88%
CCOC(=O)N1CCN(C(=O)c2ccc3c(c2)N(Cc2cc(C)ccc2C)C(=O)c2ccccc2S3=O)CC1 (stereo unspecified) -7.68%
COc1ccc(CCNC(=O)CCc2cn(Cc3ccc(C)cc3)c3ccccc23)cc1OC -11.6%
CCCCOc1nnc(-c2ccc(OCC)cc2)c2ccccc12 -0.284%
CCCCn1c2ccccc2c2nnc(SCC(=O)Nc3ccc(NC(C)=O)cc3)nc21 -3.29%
O=C(Nc1onc2c1CCCC2)c1ccc(Cl)cc1 -9.66%
CCc1nc2nc(C)cc(Nc3ccc(Br)cc3F)n2n1 3.62%
Cc1ccccc1NC(=O)c1c2c(nc3ccccc13)C(=O)N(C1CCCCC1)C2 -16%
Cc1ccc2c(=O)c(C(=O)c3ccc(F)cc3)cn(CC(=O)NC3CCCCC3)c2n1 -7.02%
CCOc1ccc(CNC(=O)c2cc3c(=O)n(Cc4cccs4)ccc3nc2C)cc1 -4.81%
CC(=O)Nc1ccc(S(=O)(=O)Nc2ccc(-c3cn4c(C)csc4n3)cc2)cc1 1.72%
COC(=O)c1cc(S(=O)(=O)N2CCN(c3cccc(C)c3)C(C)C2)c[nH]1 (stereo unspecified) -1.21%
CCc1c(C)sc(NC(=O)c2cc(-c3ccc(OC)cc3)on2)c1C#N 6.64%
COc1ccc2c(Sc3ccccc3)c(C(=O)NCc3ccc(OC(C)C)cc3)[nH]c2c1 -0.554%
COc1ccc(-c2nc3ccc(NS(=O)(=O)c4ccccc4)cc3o2)cc1 -0.562%
COc1cccc(CNC(=O)c2cc3n(n2)CCCN(Cc2ccc(C)cc2)C3=O)c1OC 0%
Cc1cccc(-c2nnc3n(CCc4ccccc4)c(=O)c4ccccc4n23)c1 -2.37%
CCOc1ccc(-n2c(SCC(=O)NCc3ccco3)nc3c([nH]c4ccccc43)c2=O)cc1 -12.5%
Cc1ccc(NC(=O)c2sc(-n3nc(C)c(Cc4ccc(Cl)cc4)c3C)nc2C)cc1 -2.79%
Cc1ccc(-n2c3nc(=O)[nH]c(=O)c-3cc3c(Cl)cccc32)cc1 -3.31%
Cc1ccc(Cn2ccnc2SCC(=O)Nc2ccc3c(c2)OCO3)cc1 -14.3%
Cc1ccc(C)c(NC(=O)N2CCN(C)c3ncccc32)c1 5.67%
CCOc1ccc(NC(=O)c2c(NC(=O)Cc3ccccc3)sc3c2CCCC3)cc1 -20.9%
CCN(Cc1ccccc1)C(=O)Cn1c(=O)n(-c2ccc(OC)cc2OC)c(=O)c2c(C)c(C)sc21 -1.6%
CCOc1ccc(CNC(=O)c2ccc(-c3nc(CSc4ccc(C)cc4)c(C)o3)cc2)cc1 2.14%
COc1ccc(Cl)cc1NC(=O)Cn1c(=O)n(Cc2ccco2)c(=O)c2ccc(C(=O)NC3CCCC3)cc21 2.67%
CCCCOc1ccc(C(C)NC(=O)c2cccc(Nc3nc4ccccc4n4nnnc34)c2)cc1 (stereo unspecified) 1.58%
CCOc1ccc(CCNC(=O)CSc2n[nH]c(-c3ccccc3)n2)cc1OCC -11%
Cc1c(CC(=O)N2CCCCC2)c(=O)oc2c(C)c3occ(C(C)(C)C)c3cc12 3.84%
Cc1ccc(CN2CCSc3ccc(C(=O)NCCc4ccccc4)cc32)cc1 -2.25%
COc1ccc(Cl)cc1NC(=O)C1CCN(c2nnc(C)c3c(C)n(-c4ccccc4)nc23)CC1 -0.507%
O=c1n(Cc2cccc(F)c2)c2ccccc2c2nc(-c3ccccc3)nn12 4.99%
CN(C)C=NC(=O)c1cc2c(n(-c3ccccc3)c1=O)CC(C)(C)CC2=O -9.2%
COc1cccc(CSc2nc3n(n2)C(c2cccc(F)c2)C(C(=O)Nc2ccccc2C)=C(C)N3)c1 (stereo unspecified) -1.32%
CN(C)c1cc2c(cc1NS(=O)(=O)c1ccccc1)n(C)c(=O)n2C 1.59%
COc1ccc(CN(C(=O)Nc2cccc(Cl)c2)c2ccccn2)cc1OC -9.98%
Cc1ccc(O)c(NC(=O)c2cc(-c3ccc4c(c3)OCO4)on2)c1 -2.03%
COc1ccc(CNC(=O)CCCN2C(=O)CSc3c2c(C)nn3-c2ccccc2)c(OC)c1 3.92%
COCCNC(=O)CCC(=O)N1Cc2cccc(OC)c2Oc2ncccc21 -8.67%
COc1ccc(Cl)cc1NC(=O)CCS(=O)(=O)c1cccc2nonc12 -8.23%
Cc1ccc(NC(=O)C(=O)NCC(c2cccnc2)N2CCOCC2)cc1Cl (stereo unspecified) -15.6%
CCc1ccc(NC(=O)Cn2ccn(Cc3ccccc3OC)c(=O)c2=O)cc1 0.746%
CCn1cc(S(=O)(=O)c2cccc(Cl)c2)c(=O)c2cc(F)c(N3CCC(C)CC3)cc21 5.05%
Cc1ccc(NC(=O)c2c(C)oc3ncnc(N4CCCCC4)c23)cc1Cl 1.59%
Cc1ccc(-n2nc(C)c3c(C)cc(=O)n(CC(=O)N4CCCc5ccccc54)c32)cc1 -7.99%
O=C(Cc1ccc(Cl)cc1)Nc1nnc2n1CCS2 -0.135%
COc1ccc(C)cc1NC(=O)CCc1c(C)nn(-c2ccc(N3CCOCC3)nn2)c1C -0.287%
O=C(COCc1cc(-c2cccs2)on1)NCc1ccc(Cl)cc1 -1.45%
COc1cccc(CNC(=O)Cc2csc3ccccc23)c1OC -15.7%
COc1ccc(NC(=O)C(=O)NCC2(c3ccc(OC)c(OC)c3)CCCC2)cc1 -4.01%
COc1cccc(OCc2nc3ccccc3n2Cc2ccccc2C)c1 0.927%
COc1ccc(NC(=O)CCCSc2nc(-c3ccco3)cc(C(F)(F)F)n2)c(OC)c1 1.24%
CCCOC(=O)c1c(NC(=O)C2c3ccccc3Oc3ccccc32)sc2c1CCCC2 3.42%
COc1cc(NC(=O)Cn2nnc(-c3ccc(C(F)(F)F)cc3)n2)c(C(=O)O)cc1OC 0.711%
CCOc1ccc(N(CC)C(=O)C2CCN(S(=O)(=O)c3cccc4nonc34)CC2)cc1 -1.12%
COc1ccc(CCC(=O)NC2CC(=O)N(c3cccc(F)c3)C2)cc1 (stereo unspecified) 1.69%
CCC(=O)n1nc(-c2cccnc2)nc1NCc1ccc(F)cc1 2.52%
O=C(Cn1c(=O)oc2cc(S(=O)(=O)NCc3ccccc3)ccc21)Nc1ccc(F)c(Cl)c1 -5.37%
Cc1cc(C)c(NC(=O)CCn2c(=O)c3cccn3c3cccnc32)c(C)c1 -6.05%
CCc1ccccc1NC(=O)Cn1nc(C(F)(F)F)c2c1CCCC2 -4.02%
OCCN1CCN(C(c2ccccc2Cl)c2sc3nc(-c4ccco4)nn3c2O)CC1 (stereo unspecified) 0.629%
CCCS(=O)(=O)N1CC(=O)N(c2cc(C)ccc2C)C(C)(C(=O)NC2CCCCCC2)C1 (stereo unspecified) 4.44%
COc1cccc(-c2cn3c(n2)sc2cc(C(=O)NCCc4ccc(OC)c(OC)c4)ccc23)c1 -7.47%
CC(C)N1C(=O)C(O)(c2c[nH]c3ccccc23)c2ccccc21 (stereo unspecified) -5.36%
Cc1cccc(N2CCn3c2nc2c3c(=O)n(CCc3ccccc3)c(=O)n2C)c1 -1.4%
Cc1cccc(N2C(=O)CS(=O)(=O)C23C(=O)N(Cc2c(F)cccc2Cl)c2ccccc23)c1 (stereo unspecified) 2.22%
CSc1cccc(NC(=O)CN2CCN(Cc3ccccc3C)S2(=O)=O)c1 -8.07%
Cc1cc(N)c(-n2cc3c(c2-c2ccc(Br)cc2)c(=O)n(C)c(=O)n3C)cc1C -2.28%
